Test results: the supplement of paper PMC3334620
The full ranking holds about 33,000 sequences; the median of “E-score (-0.5 to 0.5)” is about -0.054, and the highest 2% start at about 0.35. Some of the results follow.

Target: T1, Stb5 (UniProt P38699)
T1 sequence: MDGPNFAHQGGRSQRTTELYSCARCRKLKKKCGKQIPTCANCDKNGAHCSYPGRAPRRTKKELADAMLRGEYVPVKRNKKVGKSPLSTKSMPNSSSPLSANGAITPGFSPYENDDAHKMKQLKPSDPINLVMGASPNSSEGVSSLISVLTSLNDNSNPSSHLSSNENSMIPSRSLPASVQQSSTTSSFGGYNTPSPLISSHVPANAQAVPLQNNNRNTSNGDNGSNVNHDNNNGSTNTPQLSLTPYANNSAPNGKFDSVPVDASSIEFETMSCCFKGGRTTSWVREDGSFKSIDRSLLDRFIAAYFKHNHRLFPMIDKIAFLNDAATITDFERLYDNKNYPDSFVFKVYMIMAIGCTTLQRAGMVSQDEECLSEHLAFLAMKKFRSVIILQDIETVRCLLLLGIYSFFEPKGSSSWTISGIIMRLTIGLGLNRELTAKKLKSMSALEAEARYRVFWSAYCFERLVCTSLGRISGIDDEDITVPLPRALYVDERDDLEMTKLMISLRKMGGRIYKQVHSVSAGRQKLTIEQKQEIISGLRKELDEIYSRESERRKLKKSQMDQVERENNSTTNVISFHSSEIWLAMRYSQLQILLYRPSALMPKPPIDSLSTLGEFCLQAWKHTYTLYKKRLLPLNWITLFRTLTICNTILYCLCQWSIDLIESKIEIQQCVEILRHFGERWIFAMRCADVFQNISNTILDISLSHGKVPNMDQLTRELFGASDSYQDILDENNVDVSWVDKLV
Test: PBM E-score (8-mer binding enrichment) (E-score (-0.5 to 0.5)); higher = stronger / more preferred TF binding; most listed sequences are background and not binding sites
Conditions: protein concentration: 200 nM; construct: GST-full length
Method in brief: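 Detection of bound protein used fluorescent anti-GST, with scans normalised by masliner. The proteins were GST-tagged yeast transcription factors applied at about 100-200 nM to universal all-10-mer Agilent arrays made double-stranded by primer extension. Each ungapped eight-base word, pooled with its reverse complement, was scored with an E-score from the Universal PBM Analysis Suite.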

First: CGTCAAGA
Second: TAGACCTA
The “PBM E-score” value of the first is higher: -0.0977 for the first, -0.189 for the second.

Going from GCTTAAGC to CTCGGATA, the “PBM E-score” value rises from -0.166 to 0.0597.

First: CGTAAACC
Second: TGAGGTAA
The “PBM E-score” value of the first is higher: 0.106 for the first, -0.083 for the second.

First: ATGGGGTC
Second: CAATAATC
The “PBM E-score” value of the first is higher: 0.025 for the first, 0.00884 for the second.

First: AAAGGAGG
Second: CGAGGGCC
The “PBM E-score” value of the first is lower: -0.279 for the first, 0.0441 for the second.

Going from ATGATCAT to AGGCCGGA, the “PBM E-score” value rises from -0.168 to 0.314.

First: GATACACC
Second: CATAGACG
The “PBM E-score” value of the first is higher: 0.213 for the first, -0.00914 for the second.

Compared with ACGAACGT, CGGAAACA is higher in “PBM E-score” value: -0.105 for the first, 0.216 for the second.

First: GAAGTCTC
Second: AACAGTGT
The “PBM E-score” value of the first is higher: -0.255 for the first, -0.312 for the second.

Going from AGCCACAT to CGCGACAA, the “PBM E-score” value rises from -0.396 to 0.019.

Compared with CCCATTTA, CACAAGCC is lower in “PBM E-score” value: -0.0583 for the first, -0.146 for the second.

Compared with CGACGATC, ACGTCACT is lower in “PBM E-score” value: -0.058 for the first, -0.111 for the second.

Compared with GATTTGGC, CTCACTTC is higher in “PBM E-score” value: -0.187 for the first, -0.136 for the second.

First: ATGCCCGA
Second: AGCATAGA
The “PBM E-score” value of the first is higher: 0.248 for the first, -0.0257 for the second.

First: TAATATTA
Second: ATCGCAAT
The “PBM E-score” value of the first is higher: 0.113 for the first, -0.0999 for the second.

First: CCTCTCGC
Second: CGGCGCAA
The “PBM E-score” value of the first is lower: -0.241 for the first, 0.263 for the second.

Compared with CCACATAA, ATATTAAG is lower in “PBM E-score” value: 0.115 for the first, -0.0435 for the second.

First: GCAACGCC
Second: AAATGACC
The “PBM E-score” value of the first is lower: 0.0389 for the first, 0.141 for the second.

First: AAAACTTT
Second: CACTGGTC
The “PBM E-score” value of the first is higher: 0.0714 for the first, -0.166 for the second.

Going from AACGGCCA to GCGTCAAA, the “PBM E-score” value falls from 0.083 to 0.0482.

First: CGGTTACC
Second: ACACGCGT
The “PBM E-score” value of the first is higher: 0.157 for the first, -0.259 for the second.

First: AGTTGCTC
Second: CGAAACGC
The “PBM E-score” value of the first is lower: -0.181 for the first, 0.099 for the second.

Going from GAATGCCA to AGTAGCGG, the “PBM E-score” value rises from -0.194 to 0.324.

Going from ATCCTTTC to GGCCTAAA, the “PBM E-score” value rises from -0.195 to 0.116.

Compared with GACGTCGA, ACTGTCGA is lower in “PBM E-score” value: -0.173 for the first, -0.276 for the second.

Compared with ACCAGTGG, ACAGACAG is higher in “PBM E-score” value: -0.224 for the first, -0.0684 for the second.

First: GGCGGGGA
Second: ACAGTGGT
The “PBM E-score” value of the first is higher: 0.366 for the first, -0.291 for the second.

Going from CCGATCTA to CTACCTGC, the “PBM E-score” value falls from 0.237 to -0.0261.

Compared with CACGACCA, ATCCGAGA is higher in “PBM E-score” value: -0.246 for the first, 0.0535 for the second.

First: AGGTATAG
Second: AGCCATCC
The “PBM E-score” value of the first is higher: -0.135 for the first, -0.141 for the second.

First: CTGAACAC
Second: GCGTAGGA
The “PBM E-score” value of the first is lower: -0.107 for the first, 0.159 for the second.

Compared with CACAGCCA, AGCTGGGA is lower in “PBM E-score” value: -0.152 for the first, -0.161 for the second.

First: CGCCCAGC
Second: GAGTACCC
The “PBM E-score” value of the first is higher: -0.0456 for the first, -0.0947 for the second.

Compared with AGGCCGTC, CATGCCTA is lower in “PBM E-score” value: 0.301 for the first, -0.161 for the second.

Going from CCCTCGCC to TTGCCAAA, the “PBM E-score” value rises from -0.25 to 0.015.

Going from TACAAACA to AACCCTGA, the “PBM E-score” value rises from -0.00132 to 0.0249.

Compared with CCGGCACC, CACGCGCG is lower in “PBM E-score” value: 0.278 for the first, -0.0121 for the second.

Compared with CTTATGCC, GCAAGGGC is lower in “PBM E-score” value: 0.0514 for the first, -0.149 for the second.

Compared with AACGCCAG, ATCGATTG is lower in “PBM E-score” value: -0.0687 for the first, -0.164 for the second.

Compared with CATCCCGG, ACCTGTAG is lower in “PBM E-score” value: 0.134 for the first, -0.105 for the second.

Compared with ACAAGAAG, ATAAGAGG is higher in “PBM E-score” value: -0.047 for the first, -0.0468 for the second.

First: GTGGCAGA
Second: ATGTGCCG
The “PBM E-score” value of the first is lower: -0.223 for the first, 0.2 for the second.

Compared with CCGCTTAC, GAACATGA is lower in “PBM E-score” value: 0.146 for the first, -0.0676 for the second.

Compared with CGAAATTA, ATTGATCC is higher in “PBM E-score” value: -0.0454 for the first, 0.215 for the second.

Going from TAACGTTA to TCGCGCGA, the “PBM E-score” value falls from 0.142 to -0.101.

Compared with AGAACTAG, CGAATACC is higher in “PBM E-score” value: -0.23 for the first, 0.0579 for the second.

First: AGATCCAA
Second: CAAGTGCG
The “PBM E-score” value of the first is lower: -0.171 for the first, 0.0372 for the second.

Going from GGGTCGAA to ATACCGGA, the “PBM E-score” value rises from -0.0152 to 0.322.

Compared with CGCAGAAG, AGATCTCC is higher in “PBM E-score” value: -0.12 for the first, -0.0161 for the second.

First: AGGCCGGG
Second: CTATCGCA
The “PBM E-score” value of the first is higher: 0.298 for the first, 0.117 for the second.

Going from GCCTTGTA to CCCAATCA, the “PBM E-score” value falls from -0.0365 to -0.236.

Going from CGTAGGTA to ATGTGACA, the “PBM E-score” value falls from 0.0752 to -0.162.

Compared with ACGACTGC, AAACTCAC is higher in “PBM E-score” value: -0.266 for the first, -0.172 for the second.

Compared with ATAGATTG, CGCCAAAG is higher in “PBM E-score” value: -0.0206 for the first, 0.118 for the second.

Compared with GAGCCACA, CTGTGCTA is lower in “PBM E-score” value: -0.128 for the first, -0.192 for the second.

Compared with ATCCGACC, ATCAGTAG is lower in “PBM E-score” value: 0.262 for the first, -0.249 for the second.

First: AGGTAAAG
Second: AATTACTG
The “PBM E-score” value of the first is higher: 0.0312 for the first, -0.159 for the second.

Going from ACTGCGCA to CATGGACC, the “PBM E-score” value rises from -0.0257 to -0.00439.

Compared with ACAGTTGA, ACCCCATC is higher in “PBM E-score” value: 0.0147 for the first, 0.13 for the second.

Compared with CCCATAAC, AGTTTATA is higher in “PBM E-score” value: 0.0259 for the first, 0.229 for the second.

Compared with ATGGCGTC, AAACGTGC is lower in “PBM E-score” value: 0.0211 for the first, -0.208 for the second.

Compared with CGAATTAA, AGCTTCCG is higher in “PBM E-score” value: -0.0809 for the first, -0.0198 for the second.

First: CCATGTCG
Second: CCGGACCA
The “PBM E-score” value of the first is lower: -0.0505 for the first, 0.229 for the second.

Compared with ACAAGCCC, ACTTGCGA is lower in “PBM E-score” value: 0.0337 for the first, -0.0582 for the second.

Going from AAGTATAT to GCCACCGA, the “PBM E-score” value rises from 0.0333 to 0.139.

First: AGACCGAC
Second: ACGTTATC
The “PBM E-score” value of the first is higher: 0.385 for the first, -0.021 for the second.

Compared with AGCACTGA, AACAGCCT is lower in “PBM E-score” value: -0.184 for the first, -0.264 for the second.

Going from ATCCTGAC to CCCAGGGA, the “PBM E-score” value falls from -0.216 to -0.269.

Going from TGGAGTAA to CGAAATCC, the “PBM E-score” value rises from -0.0739 to 0.077.

Compared with CGCTAACA, ACATATGC is lower in “PBM E-score” value: 0.139 for the first, -0.0869 for the second.

First: CGAGTATA
Second: TCTTGCAA
The “PBM E-score” value of the first is lower: -0.113 for the first, -0.0179 for the second.

First: ATATTTTA
Second: GTTGCGCA
The “PBM E-score” value of the first is higher: 0.0467 for the first, -0.0873 for the second.

First: TGTCCAAA
Second: AAGACCTT
The “PBM E-score” value of the first is higher: -0.0683 for the first, -0.073 for the second.

Compared with GTGTCCGA, ATTCCGTC is lower in “PBM E-score” value: 0.231 for the first, 0.141 for the second.

Going from CACCGGGC to AACCCACT, the “PBM E-score” value falls from 0.375 to -0.00366.

Going from GGGGGTGA to AGGAGGAT, the “PBM E-score” value falls from -0.123 to -0.271.

Compared with AAGCCTAC, GCTTGTCC is higher in “PBM E-score” value: -0.298 for the first, -0.0942 for the second.

Going from ACCAGCCT to CCAGCGAG, the “PBM E-score” value falls from -0.152 to -0.174.

Compared with CCCGCTTC, ATCAATTC is lower in “PBM E-score” value: 0.19 for the first, -0.0784 for the second.

Compared with GTTAAAAA, CTTGGAAA is lower in “PBM E-score” value: 0.00418 for the first, -0.134 for the second.

Going from ACAGGCAT to AGGATCGA, the “PBM E-score” value rises from -0.218 to -0.00784.

First: AGCCGGAG
Second: CCTGAACC
The “PBM E-score” value of the first is higher: 0.279 for the first, -0.333 for the second.

Going from GTATACAC to CCATGTCA, the “PBM E-score” value falls from 0.147 to -0.116.

Going from GGCAGCCC to GAAGGCAC, the “PBM E-score” value falls from -0.0306 to -0.0547.

Going from AGCAAGCG to CCTTGGAC, the “PBM E-score” value falls from -0.028 to -0.138.

First: GGGGACAC
Second: CTTAGTGC
The “PBM E-score” value of the first is higher: -0.00426 for the first, -0.0671 for the second.
